Source: PubChem BioAssay AID686978 (National Center for Advancing Translational Sciences (NCATS), 2013)
Out of some 420,000 compounds screened, about 64,000 (15%) were called active. Inconclusive results, whose numbers are uncertain, are shown with a selection of clear calls. The call rests on the fitted dose curve; in most records, active means well fitted inhibition curve with a large enough effect; inconclusive means small, poorly fitted or top-dose-only effect; inactive means flat fitted curve, though single readings scatter. Potencies of inconclusive entries are left out as doubtful fits.
On the % scale 0 is the no-effect control and ±100 the full control effect; potency means the concentration at half of the fitted maximal effect; tags describe the fitted curve by direction and shape.

Test: qHTS for Inhibitors of human tyrosyl-DNA phosphodiesterase 1 (TDP1): qHTS in cells in absence of CPT; further: nearly all actives have a fitted effect of over 55% in size
Details: DT40 Tdp1-/- hTDP1 cells, no CPT, ATP luminescence, 48 h; activity change, negative = growth inhibition: at 46.2 µM (top of the series) unless noted
Outline: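 Cells were dispensed at 400 per well, compounds added by pin tool, plates incubated ≥48 hr at 37 °C, then CellTiter-Glo added for 30 min at room temperature before luminescence reading. Line: DT40 Tdp1-/- complemented with hTDP1; camptothecin omitted.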
In the case of Cc1ccc(-c2cnc(C(O)c3c(C)cccc3C)[nH]2)cc1 (stereo unspecified), the “activity change, negative = growth inhibition” value is reported as inactive: -25.6%.
For CCc1ccc(CNC(=O)c2c3c(nc4ccccc24)C(=O)N(C2CCCCC2)C3)cc1, the Potency was active: 16.4 µM.
In the case of C#CCn1c(=NC(=O)c2cc(-c3cccs3)nc3ccccc23)sc2cc(S(N)(=O)=O)ccc21, the Potency is reported as inconclusive [inhibitor, partial curve].
For C=CCNC(=O)c1ccc2nc(-c3ccco3)c(-c3ccco3)nc2c1, the Potency was active: 11.2 µM.
With O=C(Nc1nc2ccc(Cl)cc2s1)c1ccc(N2CCCCC2)c([N+](=O)[O-])c1 the Potency was active: 20.6 µM.
With Cc1ccc(N(CC(=O)N2CCCCCC2)S(C)(=O)=O)c(C)c1 the “activity change, negative = growth inhibition” value was inactive: -14.4%.
With O=C(Oc1ccc2c(c1)OCO2)C12CC3CC(CC(C3)C1)C2 the Potency was inconclusive [inhibitor, single point].
For CSc1nc2nccc(-c3ccc(Oc4ccccc4)cc3)n2n1, the Potency was inconclusive [inhibitor, single point].
In the case of COc1cc2c(=O)c(C(=O)c3ccc(C)c(C)c3)cn(Cc3ccccc3F)c2cc1OC, the Potency is reported as active: 16.4 µM.
In the case of O=C(NC1CCCCCCC1)C1CCC(CNc2c(N3CCCC3)c(=O)c2=O)CC1 (stereo unspecified), the Potency is reported as inconclusive [inhibitor, single point].
In the case of Cc1ccc(NC(=O)c2cc(NC(=O)C3CC=CCC3C(=O)O)ccc2N2CCOCC2)cc1 (stereo unspecified), the Potency is reported as inconclusive [inhibitor, full curve].
For COc1ccc(/C=C/C(=O)OCC(=O)NCc2ccco2)c(OC)c1, the Potency was inconclusive [inhibitor, single point].
With Cc1nc(NCC2CCCO2)c2nnn(Cc3ccccc3Cl)c2n1 (stereo unspecified) the Potency was inconclusive [inhibitor, full curve, poor fit].
For CC(C)CN(C(=O)C1CCC1)c1c(N)n(Cc2ccccc2)c(=O)[nH]c1=O, the “activity change, negative = growth inhibition” value was inactive: 1.05%.
With Nc1nc(-c2cccnc2)nn1C(=O)Cc1ccccc1 the Potency was inconclusive [inhibitor, single point].
For O=C(CCc1nc2ccccc2c(=O)[nH]1)NCCN1C(=O)S/C(=C\c2ccc(OC(F)F)cc2)C1=O, the Potency was active: 18.4 µM.
With CCCCC1C2=C(CCCC2=O)OC2=C1C(=O)CCC2 the Potency was inconclusive [inhibitor, full curve, poor fit].
For COC(=O)[C@]12CCCCC=C1N(Cc1ccc(Cl)cc1Cl)C(=O)[C@H](CC(=O)N1CCN(C(=O)c3ccco3)CC1)C2, the Potency was inconclusive [inhibitor, single point].
For C=C(C)COc1ccc(-c2ncncc2-c2ccc(OC)cc2)c(O)c1, the Potency was inconclusive [inhibitor, single point].
With O=C(Nc1ccccc1)N1CCC(c2nc(-c3ccc(S(=O)(=O)N4CCOCC4)cc3)no2)CC1 the Potency was active: 3.26 µM.
With CCCCCNC(=O)C(c1ccc(OC)cc1)n1c(=O)c(-c2cc3ccccc3[nH]2)nc2ccccc21 (stereo unspecified) the Potency was inconclusive [inhibitor, single point].
In the case of CCN(CC)C(=O)[C@H]1CC(CC(=O)NCc2cccc(C(F)(F)F)c2)C(=O)N2CCc3c([nH]c4ccccc34)[C@]12C (stereo partly specified), the Potency is reported as active: 20.6 µM.
For CNS(=O)(=O)c1cccc(C(=O)OCc2cc(=O)oc3c(C)c(O)ccc23)c1, the Potency was active: 18.4 µM.
With CCS(=O)(=O)N1CCC(C(=O)Nc2cc(Cl)ccc2O)CC1 the Potency was inconclusive [inhibitor, single point].
In the case of COc1cc(NC(=O)C2CC(c3c(F)cccc3Cl)=NO2)c(OC)cc1Cl (stereo unspecified), the Potency is reported as inconclusive [inhibitor, partial curve].
For Cc1ccc(-n2c(=S)[nH]c3sc4c(c3c2=O)CCc2ccccc2-4)cc1, the “activity change, negative = growth inhibition” value was inactive: -22.6%.
With Cc1ccc(OCC(=O)NNC(=O)C2CSC3(C)CCC(=O)N23)cc1C (stereo unspecified) the “activity change, negative = growth inhibition” value was inactive: 5.1%.
With O=[N+]([O-])c1ccccc1CN1CCN(Cc2c[nH]c3ccccc23)CC1 the Potency was active: 3.66 µM.
In the case of CC1=C(C(=O)OCc2ccc(C)cc2)C(c2ccccc2F)CC(=O)N1 (stereo unspecified), the Potency is reported as inconclusive [inhibitor, single point].
With CNC[C@H](CC1CCCCC1)NC[C@H](Cc1ccccc1)NCCC12CC3CC(CC(C3)C1)C2 the Potency was active: 13 µM.
For COc1cc(C(=O)N2CCN(c3cccc(C)c3C)CC2)ccc1OCC(=O)N1CCOCC1, the Potency was inconclusive [inhibitor, single point].
With O=C(NCc1ccccc1F)C1CCN(c2nnc(-n3cccc3)s2)CC1 the Potency was inconclusive [inhibitor, single point].
In the case of COc1ccc(NC(=S)N(CCc2c(C)[nH]c3ccccc23)Cc2ccco2)cc1, the Potency is reported as inconclusive [inhibitor, single point].
In the case of COc1ccccc1CNS(=O)(=O)c1c(C(=O)N2CCCCC2)c(C)n(C)c1C, the “activity change, negative = growth inhibition” value is reported as inactive: 12.6%.
With CSc1nsc(SCC(=O)N2CCc3ccccc32)n1 the Potency was inconclusive [inhibitor, single point].
In the case of CC(=O)N(CC(C)C(=O)O)c1c(I)cc(I)c(N)c1I (stereo unspecified), the Potency is reported as “inactive”.
In the case of Cc1cc(/C=C(\C#N)C(=O)Nc2ccccc2)c(C)n1-c1cccnc1, the Potency is reported as inconclusive [inhibitor, single point].
For COc1ccc2c(c1)c(=O)c(C(=O)c1ccccc1)cn2CC(=O)Nc1ccc2c(c1)OCCO2, the Potency was inconclusive [inhibitor, single point].
In the case of OC(C#CCN1CCCC1)(c1ccccc1)c1cccnc1 (stereo unspecified), the “activity change, negative = growth inhibition” value is reported as inactive: 2.08%.
For COc1cc(NC(=O)C2CCCCC2)c2ncccc2c1, the Potency was inconclusive [inhibitor, single point].
In the case of CC(C)[C@@H](C(=O)N1CCN(Cc2ccc3c(c2)OCO3)CC1)n1nnc2ccccc2c1=O, the Potency is reported as active: 13 µM.
For O=C(N/N=C/c1ccc(N2CCOCC2)cc1)c1ccccc1OCCOc1ccccc1, the Potency was inconclusive [inhibitor, single point].
For CCOC(=O)c1nc(-c2ccccc2)oc1N1CCOCC1, the Potency was inconclusive [inhibitor, single point].
With COc1cccc(CNc2nc3cc(-c4ccccc4CO)sc3c(=O)n2C)c1 the Potency was inconclusive [inhibitor, partial curve, poor fit].
For CC(C)OC(=O)/C(=C\C=C\c1ccccc1)NC(=O)c1ccccc1, the “activity change, negative = growth inhibition” value was inactive: -23.9%.
For COc1cc(C=O)ccc1OS(=O)(=O)c1ccccc1[N+](=O)[O-], the Potency was inconclusive [inhibitor, single point].
For CCOc1ccc(CCNC(=O)C2CCN(c3nnc(-n4cccc4)s3)CC2)cc1, the Potency was inconclusive [inhibitor, single point].
In the case of NS(=O)(=O)c1ccc(NC(=O)COC(=O)COc2ccccc2)cc1, the “activity change, negative = growth inhibition” value is reported as inactive: -11.4%.
With COCCCNC(=O)NC(CCC(C)C)c1c(-n2cccc2)sc2c1CCN(C)C2 (stereo unspecified) the Potency was inconclusive [inhibitor, single point].
With COc1ccccc1NS(=O)(=O)c1cc(-c2cc(C)no2)ccc1OC the “activity change, negative = growth inhibition” value was inactive: -14.3%.
With Cc1c(Cl)cccc1NC(=O)CCCn1nc(C)c2sc3ccccc3c2c1=O the Potency was inconclusive [inhibitor, single point].
With CN(Cc1cccs1)C(=O)C1CCN(S(=O)(=O)c2ccccc2)CC1 the “activity change, negative = growth inhibition” value was inactive: 16.5%.
For COc1cc(-c2nc(-c3ccc4c(c3)-c3ccccc3S4(=O)=O)c(-c3ccccc3)[nH]2)cc(OC)c1O, the Potency was active: 16.4 µM.
With Cc1ccc(CSC2=Nc3sccc3C3=NC(=O)CN23)cc1 the “activity change, negative = growth inhibition” value was inactive: -4.85%.
In the case of COc1ccc(C)cc1NC(=O)CN1C(=O)COc2ccc(S(=O)(=O)N3CCCCC3)cc21, the Potency is reported as inconclusive [inhibitor, partial curve].
For Cc1nc(NS(=O)(=O)c2ccc(N)cc2)nc(C)c1Br, the “activity change, negative = growth inhibition” value was inactive: -24.7%.
With Cc1nnc(C)n1-c1ccc(C(=O)Nc2cccc(Br)c2)cc1 the Potency was inconclusive [inhibitor, partial curve].
With COc1cccc(-c2ccc(NC(=O)C3CCCN(Cc4cnn(C(C)C)c4)C3)cc2)c1 (stereo unspecified) the Potency was inconclusive [inhibitor, single point].
With COCCOC(=O)c1c(NC(=O)COC(=O)Cc2cccc(OC)c2)sc(C(N)=O)c1C the “activity change, negative = growth inhibition” value was inactive: -6.19%.
In the case of COc1ccc(OCC(=O)N2CCN(C(=O)c3ccc([N+](=O)[O-])cc3)CC2)cc1, the “activity change, negative = growth inhibition” value is reported as inactive: -11.1%.
In the case of COc1cccc(C(=O)COC(=O)CCCC(=O)NC2CCCCC2)c1, the “activity change, negative = growth inhibition” value is reported as inactive: -10.3%.
For CCOC(=O)N1CCN(C(=O)CSc2nc3c(cnn3-c3ccc(Cl)cc3)c(=O)[nH]2)CC1, the Potency was active: 25.9 µM.
In the case of CCC1CCCCN1S(=O)(=O)c1ccc(NC(=O)c2cc(=O)c3c(C)cc(C)cc3o2)cc1 (stereo unspecified), the Potency is reported as active: 14.6 µM.
In the case of CC(C)(C)C(=O)Nc1ccc(C(=O)N/N=C/c2ccccc2OC(=O)c2ccc(Cl)cc2Cl)cc1, the Potency is reported as active: 11.6 µM.
In the case of CC(=O)Nc1ccc(NC(=O)C(C)Sc2nnc(-c3cccs3)o2)cc1 (stereo unspecified), the “activity change, negative = growth inhibition” value is reported as inactive: 9.09%.
With O=C(Nc1nc(-c2ccccc2)cs1)c1ccc2c(=O)n3c(nc2c1)CCCCC3 the Potency was active: 8.2 µM.
For C[C@@H](c1ccccc1)N1C[C@H]2CCCN2c2cc(Br)ccc2S1(=O)=O, the Potency was inconclusive [inhibitor, single point].
For COC(=O)c1cc2oc3ccccc3c2n1Cc1nc(-c2ccccc2Cl)oc1C, the “activity change, negative = growth inhibition” value was inactive: -15.6%.
In the case of O=C1CCCN1c1ccc(CNS(=O)(=O)c2ccc(F)cc2)cc1, the “activity change, negative = growth inhibition” value is reported as inactive: -24.6%.
For CC(C)Sc1nc2sc3c(c2c(=O)n1Cc1ccccc1)CCCC3, the Potency was inconclusive [inhibitor, single point].
In the case of O=C(CN1C(=O)C2C3C=CC(C3)C2C1=O)N1CC=C(c2ccccc2)CC1 (stereo unspecified), the Potency is reported as inconclusive [inhibitor, full curve, poor fit].
